# Measurements reported in PMC12136788.
# The list shows a part of the results.
# T1: UNK ZnF1-3 (human, UniProt Q9C0B0 31-174)
# T1 sequence: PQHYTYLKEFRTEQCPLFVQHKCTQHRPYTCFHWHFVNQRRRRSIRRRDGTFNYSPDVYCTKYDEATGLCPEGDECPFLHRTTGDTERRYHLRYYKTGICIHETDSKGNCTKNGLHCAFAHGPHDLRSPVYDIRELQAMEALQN
# B1: chr5:132424114:132424115:+_ENSG00000170606_ENST00000304858|hu_hu|motif|central (ssRNA)
# RNA: GGGAGUUCUACAGUCCGACGAUCACCGAAAAAUUUGCUGAUCUUCUCUUUUACCGCAGGGAUUCGUGUAGCACCACCAACGGUCUCCACUGCAUAAAUAUCUUCUUUCUUUAACUUGGUUUGUUCCAAAACACUACGAAGUGGCAACAGAGGAUUGAGCAUCA
# B2: chr2:198266515:198266516:-_ENSG00000115524_ENST00000335508|hu_mus|motif|central (ssRNA)
# RNA: GGGAGUUCUACAGUCCGACGAUCCUUCAUUUCUUCAUCAGGAGACUGAAAUUCUCGAAUGAGGAUUAACAUCACUUCUCGGGUAUAGUAGUUGGCAUAUUCUGCAUCCAUAAGAGGAAUAAGAUACCCAAUAGCCUUCAAGAACAACAGAGGAUUGAGCAUCA
# B3: chr3:15292738:15292739:+_ENSG00000131375_ENST00000253693|hu_mus|motif|central (ssRNA)
# RNA: GGGAGUUCUACAGUCCGACGAUCCCAGUAAUAGCUGAGAGUUCUCAAUCAUUGGAGUUGUGUUGUCUUGAUGGGGACAGUACGGUUAAAGUCCAAGAAAAAAGGUCCUUCUUGUUUAGGCAAAAAAGUACUAGGGAUGAUAUUCAACAGAGGAUUGAGCAUCA
# B4: chr8:95500983:95500984:-_ENSG00000164944_ENST00000437199|hu_hu|hu_hu_hu_mus_True|8_8 (ssRNA)
# RNA: GGGAGUUCUACAGUCCGACGAUCAGAACACAUCUAUCGAGUAAAGGACCGUACAUGACGGCCUCUACCACUGCCUCCACUAACAAACUUUCCUCUCGAGCCUCCACUGCCGCUAUUUGUACUAGCCCCAGGAAGGUCCAGGCCCAACAGAGGAUUGAGCAUCA
# B5: chr7:135612270:135612271:-_ENSG00000105887_ENST00000393085|hu_mus|hu_hu_hu_mus_False|78_98 (ssRNA)
# RNA: GGGAGUUCUACAGUCCGACGAUCGUUUUUUUCUGAGUAAGUAUUACGUACUUCAGUAACAAAACUUACUUAACCUUUUAUUAAUGCGUGUUGUACCAAAAGCAGACAUUUUAGCUUCAUUUAUUCAAAAAUAUUAACAUUAAGCAACAGAGGAUUGAGCAUCA
# B6: chr11:106647441:106647442:-_ENSMUSG00000020719_ENSMUST00000021062|mus_mus|FALSE|FALSE (ssRNA)
# RNA: GGGAGUUCUACAGUCCGACGAUCUAUGUGUACAAUGGCAGGCAGCAAAUAAGAUAAUGUUUUCCCAGAUCCAGUCUGAGCUACUCCAACCAUAUCCAAUCCACUGAGAGCAACUGGCCAGCCCUGAGCUUGAAUAGCAGUGGGCAACAGAGGAUUGAGCAUCA
# B7: chr12:48362563:48362564:+_ENSG00000134291_ENST00000256686|hu_hu|FALSE|FALSE (ssRNA)
# RNA: GGGAGUUCUACAGUCCGACGAUCGAUGAAGGGUGAAUCAAGCCCCACAUAGACUCUUGGUAAAAACAAUUCUAACUUUCUAAAAAAAAAAAAAGCCAACACACUUUUUUCUUUCUUUUCAAAAAGCUCCCAGGCCUUUGGGAACAACAGAGGAUUGAGCAUCA
# B8: chr1:95392461:95392462:-_ENSG00000117519_ENST00000538964|hu_hu|FALSE|FALSE (ssRNA)
# RNA: GGGAGUUCUACAGUCCGACGAUCUUCGGCCGAGAGCCCAUAGGAAGGGCCCUUGUUGAAGUGGGUCAUGGUGGUUCGGGCGGCGGGAAGAGACAGCGCUGGGGUCCGGGGUCUCUCGCACUUCGCUUCCCCGCUCCUGGGUGCCAACAGAGGAUUGAGCAUCA
# B9: chr3:72423869:72423870:-_ENSG00000163602_ENST00000477973|hu_hu|motif|central (ssRNA)
# RNA: GGGAGUUCUACAGUCCGACGAUCGCAGAAUUCAUAAAUAGACAUUUCUAUUUAAAGCAGGAAAAUGAUAAAGUGGCUUCGGAUAACAUAGUCGUGCACAUGCCAGUAACAGGAAUAUAUUAACAUCUUUUAUUUGCUAGACAACAACAGAGGAUUGAGCAUCA
# B10: chr4:13698614:13698615:+_ENSMUSG00000006586_ENSMUST00000098257|mus_hu|motif|central (ssRNA)
# RNA: GGGAGUUCUACAGUCCGACGAUCACUCAGUGCUCUCCAAGUGUUUCUUUUGACAGAUAUCAUUCUCCACCAAUCGCUCUGCGGAUUUCCUCUCUCCUUUUCUGACUGGGACAGAGAUUAUGUUCACCAGCCCAGAGAUCAAUCCAACAGAGGAUUGAGCAUCA
# B11: chr3:128516864:128516865:+_ENSG00000075785_ENST00000265062|hu_hu|FALSE|FALSE (ssRNA)
# RNA: GGGAGUUCUACAGUCCGACGAUCCUGCAUUGUGACUAGCCUGUCAUCCACCAUCACCUCCUUGGUCAGAAAGUCAGCUCCUAUUGUGGCUUUGUACUGAUUGCUGAAUUUCUUAUUCACAUACUGGUUCAUGAGUGAUGUCUUCAACAGAGGAUUGAGCAUCA
# B12: chr8:93522421:93522422:+_ENSMUSG00000056608_ENSMUST00000048665|mus_mus|FALSE|FALSE (ssRNA)
# RNA: GGGAGUUCUACAGUCCGACGAUCAGAUUGGAUCAUUGCUUGCAGAUGAAAAUCAGAGGCAGAUGGAUUGUAUGUAUCUCUAAAUUCUCCAAGUAUUUUCUCCUCAGCACCUUUGAUAAGAUACGGAUGAUUGCAGCAUUUCCUCAACAGAGGAUUGAGCAUCA
# B13: chr2:47387792:47387793:-_ENSG00000143933_ENST00000272298|hu_hu|hu_hu_hu_mus_True|8_18 (ssRNA)
# RNA: GGGAGUUCUACAGUCCGACGAUCUAAGGACAAUGACAGUAAGAUAAGGGAAGAAAACAUGGAGGAAUGAAGUCCUAAUUACUAUACAUGCAUAUUUUUUGACAGUAGGGGGGGGGACUUUUACAGAUAAGUUACAAAAACAAACAACAGAGGAUUGAGCAUCA
# B14: 81584201_81584321_406_CDS_ENSMUSG00000071064_ENSMUST00000098614|mouse|control|control (ssRNA)
# RNA: GGGAGUUCUACAGUCCGACGAUCGCCCAGGGAGGUGUCGGGGGAUGUGGACUGCUCUUGGAUCCGGUCCUCCAGGGACAGCUUAUAGUUCUCUUGGACUUCCCCAUAGGACGCUUCUGACGGAGUCUCAGAGGAGUUUCCGUACAACAGAGGAUUGAGCAUCA
# B15: 74035966_74036999_1806_CDS_ENSG00000167881_ENST00000307877|human|control|control (ssRNA)
# RNA: GGGAGUUCUACAGUCCGACGAUCGACAAGGGAAGGGUCCAGGCAGAAUGUCUCAAACCGUUCAACCAGAGGCUUAUUGUCCUUGACUUGGGAGGAGGAGGUCUCUGUUUGAUGAGCGUCGUUUGCAUCAAGGAUGGCUGCGGCCAACAGAGGAUUGAGCAUCA
# B16: chr20:46266449:46266450:+_ENSG00000124151_ENST00000372004|hu_hu|motif|central (ssRNA)
# RNA: GGGAGUUCUACAGUCCGACGAUCUUGCUUAGUCCCCAGAUGACUACCAUUUGAGGAUAUGGAAUUAUUGUAAAAGUCAGAACGGGUCAGAUCACCAAGAAUAGCAUCUAGAUUAUCCAAGUCUCCAGAUCCCUCUUCACUUGUCAACAGAGGAUUGAGCAUCA
# B17: chr13:100193533:100193534:-_ENSMUSG00000052727_ENSMUST00000064762|mus_mus|FALSE|FALSE (ssRNA)
# RNA: GGGAGUUCUACAGUCCGACGAUCUUAAACAUUUGGAAAAUGUGAUUCACAGCAUUAAGUAGACUGCAUGGGUUCUCAGUGAGGAAACCCCUGGAGAAAUAUUGUUUAAACCCUCAGAGUAAAAGAGCAGUGCGAAACAUACGCCAACAGAGGAUUGAGCAUCA
# B18: 102975785_102977221_268_CDS_ENSMUSG00000005687_ENSMUST00000005830|mouse|control|control (ssRNA)
# RNA: GGGAGUUCUACAGUCCGACGAUCAAAUUCAUUUCUCAUUAUGUCUGUUUCAAAGGCAGAAUAAUCCGGGGCCGUCAGGUAGCUCAGGUAGUUCUUGGUAGGUCGGUAUCUGCGCGUCUCCUCCUCCACCAGGGCCGCCGCCGCCAACAGAGGAUUGAGCAUCA
# B19: chr11:23194044:23194045:+_ENSMUSG00000020290_ENSMUST00000020538|mus_mus|FALSE|FALSE (ssRNA)
# RNA: GGGAGUUCUACAGUCCGACGAUCUUGAAUAAACAUUUGGUUGUUAACUGGAUUUCCAGGAUUUAGUGGUGUACUUAUUUUUCCUUCUUCAACCAAAUUAAACAUAUAUGCAAGAAUUGAUGCAUGCAUUGUUAGACCUGCAGUCAACAGAGGAUUGAGCAUCA
# B20: chr2:5814250:5814251:-_ENSMUSG00000025816_ENSMUST00000102981|mus_hu|mus_mus_mus_hu_True|1_28 (ssRNA)
# RNA: GGGAGUUCUACAGUCCGACGAUCUUCCUUUCCGGUUUCUGAAUUUCUGGUAGAACUGCACAGAAUGGUUUGAUAACUUCUAAAAAUUUGAUGCCCAUGGCUGCUGCUCAGCACACCCAGGGGGAAACCGCGGCCUCGCAGCUGCAACAGAGGAUUGAGCAUCA
# B21: chr12:53618122:53618123:+_ENSMUSG00000035133_ENSMUST00000110725|mus_mus|FALSE|FALSE (ssRNA)
# RNA: GGGAGUUCUACAGUCCGACGAUCUCUUGUUCCCUCUAAGUUGAUAUAUUCUUCAUAAUCAGGAUGAUUUUUUAAUUUAUUACUAACAGUUUUCCAAGUUGCAUGAUAAUCUCUCACAGUCUGUACAAGUUUUUCAAACUUGUCCAACAGAGGAUUGAGCAUCA
# B22: chr1:60041781:60041782:+_ENSMUSG00000041040_ENSMUST00000036540|mus_hu|mus_mus_mus_hu_False|28_98 (ssRNA)
# RNA: GGGAGUUCUACAGUCCGACGAUCAAGUUUACAAUAGCUCAACUUUAGCAGUAGUGGCAAAUUUUCUUUUAUUUUCCUUCACAAAAGAAAAUCUUUAUAACCCAGUCCAAUCCCAGAACAUAGUGAAAGCUAUAAAUUCUGACUCAACAGAGGAUUGAGCAUCA
# Target: T1, UNK ZnF1-3
# Assay: nsRBNS (natural sequence RNA bind-n-seq); RBNS binding buffer (assumed for nsRBNS): 25 mM Tris pH 7.5, 150 mM KCl, 3 mM MgCl2, 0.01% Triton X-100, 500 ug/ml BSA, 20 U/ml SUPERase-In, 4 C; UNK is unkempt and MSI1 is Musashi-1; names of the RNAs are library labels; protein concentration not given here; high values mean tight binding
row,Binder,binding signal [enrichment R]
1,B1,0.77
2,B2,1.28
3,B3,1.16
4,B4,0.994
5,B5,0.865
6,B6,1.64
7,B7,1.97
8,B8,0.898
9,B9,1.06
10,B10,0.646
11,B11,0.543
12,B12,1.26
13,B13,2.72
14,B14,0.631
15,B15,0.897
16,B16,0.959
17,B17,1.13
18,B18,0.7
19,B19,0.601
20,B20,1.03
21,B21,0.798
22,B22,0.367
